From the antibiotic and cytotoxicity screens of Wong et al. (2023)
The other results are listed elsewhere or left out.

tested on: S. aureus RN4220; test: growth inhibition call (relative growth <= 0.2); conditions: 50 µM

Growth inhibition call, inactive:
C[C@H](CO)N1C[C@H](C)[C@@H](CN(C)C(=O)C2CCCCC2)Oc2ncc(C#CC3(O)CCCC3)cc2C1=O, C[C@@H]1CN([C@@H](C)CO)C(=O)c2cccc(NS(=O)(=O)c3cn(C)cn3)c2O[C@@H]1CN(C)CC1CC1, C[C@H]1CN([C@@H](C)CO)C(=O)c2cccc(NC(=O)C3CC3)c2O[C@@H]1CN(C)Cc1ccc(-c2ccccc2)cc1, C[C@@H]1CCCCO[C@H](CN(C)C(=O)C2CCCCC2)[C@@H](C)CN([C@@H](C)CO)C(=O)c2cc(NC(=O)c3ccccc3)ccc2O1, C[C@H](CO)N1C[C@H](C)[C@@H](CN(C)CC2CCCCC2)Oc2ccc(NC(=O)Nc3cccc4ccccc34)cc2CC1=O, C[C@H]1CN([C@@H](C)CO)C(=O)c2c(c3ccccc3n2C)-c2ccccc2CO[C@H]1CN(C)S(=O)(=O)c1ccc(Cl)cc1, COc1ccccc1S(=O)(=O)N[C@H]1CC[C@@H](CCNC(=O)C2CCOCC2)O[C@H]1CO, C[C@H](CO)N1C[C@H](C)[C@@H](CN(C)Cc2ccc(Cl)c(Cl)c2)Oc2c(NC(=O)C3CCCCC3)cccc2C1=O, COc1ccccc1OCC(O)CN1CCN(CC(=O)Nc2c(C)cccc2C)CC1.Cl.Cl (stereo not given), C[C@@H]1CCCCO[C@@H](CN(C)Cc2ccncc2)[C@@H](C)CN([C@H](C)CO)C(=O)c2cc(NC(=O)NC3CCCCC3)ccc2O1, O=C(C[C@@H]1CC[C@@H]2[C@H](COC[C@@H](O)CN2S(=O)(=O)c2cccc(F)c2)O1)NCCCN1CCOCC1, CNC(=O)C[C@@H]1CC[C@@H]2[C@H](COC[C@H](O)CN2C(=O)c2ccc3c(c2)OCO3)O1, CN(CC(=O)O)[C@H]1CCS(=O)(=O)C1, CNC[C@@H]1OCCCC[C@H](C)Oc2ccc(NC(=O)Nc3cccc4ccccc34)cc2C(=O)N([C@@H](C)CO)C[C@H]1C, C[C@H]1CN([C@@H](C)CO)C(=O)c2ccccc2-c2ccccc2CO[C@@H]1CN(C)Cc1ccc(C(F)(F)F)cc1, C[C@@H]1CCCCO[C@H](CN(C)C(=O)c2ccncc2)[C@@H](C)CN([C@H](C)CO)C(=O)c2cc(NS(C)(=O)=O)ccc2O1, C[C@@H]1CN([C@@H](C)CO)C(=O)c2cc(C#CC3CC3)cnc2O[C@@H]1CN(C)S(=O)(=O)c1cccc(F)c1, COc1ccc(S(=O)(=O)N2C[C@@H](O)COC[C@@H]3O[C@@H](CC(=O)NCc4ccc(Cl)c(Cl)c4)CC[C@H]32)cc1, O=C(NCCN1CCCC1)[C@H]1N[C@H]2c3ccc(-c4ccccc4)c(=O)n3C[C@H]2[C@@H]1CO, CCOc1ccc(NC(C)=O)cc1, COc1cccc(C#Cc2ccc3c(c2)O[C@@H](CN(C)C(=O)CN2CCOCC2)[C@@H](C)CN([C@H](C)CO)S3(=O)=O)c1, C[C@@H]1CN([C@H](C)CO)C(=O)c2cc(NC(=O)CCC(F)(F)F)ccc2O[C@H]1CN(C)Cc1ccc(-c2ccccc2)cc1, COCC(=O)Nc1ccc2c(c1)C(=O)N(C)[C@H]1CC[C@@H](CC(=O)NCc3ccc(OC)cc3)O[C@@H]1CO2, C[C@H]1CN([C@@H](C)CO)C(=O)c2cccc(NS(C)(=O)=O)c2O[C@@H]1CN(C)C(=O)NC1CCCCC1, COc1ccc(NC(=O)Nc2ccc3c(c2)C(=O)N([C@@H](C)CO)C[C@@H](C)[C@H](CN(C)Cc2ccc(-c4ccccc4)cc2)O3)cc1, Cc1ccc(S(=O)(=O)Nc2ccc3c(c2)CC(=O)N([C@@H](C)CO)C[C@@H](C)[C@H](CN(C)C(=O)Nc2ccc(C(F)(F)F)cc2)O3)cc1, Cc1noc(C)c1NC(=O)Nc1ccc2c(c1)C(=O)N([C@@H](C)CO)C[C@H](C)[C@H](CN(C)C(=O)Nc1ccc(F)cc1)OCCCC[C@H](C)O2, CN1CCN(C(=O)C[C@@H]2C[C@H]3c4cc(NC(=O)c5ccc6c(c5)OCO6)ccc4O[C@H]3[C@H](CO)O2)CC1, C[C@@H]1CN([C@@H](C)CO)C(=O)c2cc(NC(=O)Cc3ccccc3)ccc2O[C@@H](C)CCCCO[C@H]1CN(C)C(=O)Cc1ccccc1, C[C@H](CO)N1C[C@H](C)[C@H](CN(C)Cc2ccc3c(c2)OCCN3C)OCc2ccccc2-c2c(n(C)c3ccccc23)C1=O, COc1ccc(S(=O)(=O)N(C)C[C@@H]2OCCCC[C@H](C)Oc3ccc(NS(=O)(=O)c4cn(C)cn4)cc3C(=O)N([C@@H](C)CO)C[C@@H]2C)cc1, C[C@@H]1CN([C@H](C)CO)S(=O)(=O)c2ccc(C#CC3CC3)cc2O[C@@H]1CN(C)C(=O)c1cccc(F)c1, CN1CCN(C(=O)C[C@@H]2CC[C@@H]3[C@H](COc4ccc(NC(=O)C5CCCCC5)cc4C(=O)N3C)O2)CC1, O=C(C[C@@H]1CC[C@@H]2[C@H](COC[C@@H](O)CN2C(=O)C2CC2)O1)NCc1ccncc1, C[C@@H]1CN([C@@H](C)CO)S(=O)(=O)c2ccc(C#C[C@@H](C)O)cc2O[C@@H]1CN(C)C(=O)CN(C)C, C[C@@H]1CN([C@H](C)CO)C(=O)Cc2cc(NS(C)(=O)=O)ccc2O[C@@H]1CN(C)Cc1ccc(C(=O)Nc2ccccc2N)cc1, C[C@H](CO)N1C[C@H](C)[C@H](CN(C)C(=O)Nc2ccccc2)Oc2ccc(NC(=O)Nc3cccc4ccccc34)cc2CC1=O, C[C@@H]1CN([C@H](C)CO)C(=O)c2cc(NC(=O)Nc3ccc(C(F)(F)F)cc3)ccc2O[C@@H](C)CCCCO[C@H]1CN(C)C(=O)Nc1ccc(F)cc1, Cc1noc(C)c1NC(=O)Nc1ccc2c(c1)CC(=O)N([C@@H](C)CO)C[C@@H](C)[C@H](CN(C)S(C)(=O)=O)O2, O=C1O[C@H](c2ccccc2)[C@H](c2ccccc2)N2[C@H]1[C@@H](C(=O)N1CCCCCCC1)[C@]1(C(=O)Nc3ccc(C#CC4(O)CCCCCC4)cc31)[C@H]2c1ccc(O)cc1
